Measured values as given in publication PMC4336329 (PLoS ONE, 2015).
Hit rate of the full screen: of about 310,000 compounds, about 2,200 (0.71%) showed an effect of 50% or more. The effect is printed as a negative number. Some of the results follow.

Molecular target: human ether-à-go-go-related gene (hERG) potassium channel (human, UniProt Q12809)
Experiment: primary screen, population patch clamp on CHO cells stably expressing hERG

human ether-à-go-go-related gene (hERG) potassium channel, sequence (Q12809 whole entry, looked up): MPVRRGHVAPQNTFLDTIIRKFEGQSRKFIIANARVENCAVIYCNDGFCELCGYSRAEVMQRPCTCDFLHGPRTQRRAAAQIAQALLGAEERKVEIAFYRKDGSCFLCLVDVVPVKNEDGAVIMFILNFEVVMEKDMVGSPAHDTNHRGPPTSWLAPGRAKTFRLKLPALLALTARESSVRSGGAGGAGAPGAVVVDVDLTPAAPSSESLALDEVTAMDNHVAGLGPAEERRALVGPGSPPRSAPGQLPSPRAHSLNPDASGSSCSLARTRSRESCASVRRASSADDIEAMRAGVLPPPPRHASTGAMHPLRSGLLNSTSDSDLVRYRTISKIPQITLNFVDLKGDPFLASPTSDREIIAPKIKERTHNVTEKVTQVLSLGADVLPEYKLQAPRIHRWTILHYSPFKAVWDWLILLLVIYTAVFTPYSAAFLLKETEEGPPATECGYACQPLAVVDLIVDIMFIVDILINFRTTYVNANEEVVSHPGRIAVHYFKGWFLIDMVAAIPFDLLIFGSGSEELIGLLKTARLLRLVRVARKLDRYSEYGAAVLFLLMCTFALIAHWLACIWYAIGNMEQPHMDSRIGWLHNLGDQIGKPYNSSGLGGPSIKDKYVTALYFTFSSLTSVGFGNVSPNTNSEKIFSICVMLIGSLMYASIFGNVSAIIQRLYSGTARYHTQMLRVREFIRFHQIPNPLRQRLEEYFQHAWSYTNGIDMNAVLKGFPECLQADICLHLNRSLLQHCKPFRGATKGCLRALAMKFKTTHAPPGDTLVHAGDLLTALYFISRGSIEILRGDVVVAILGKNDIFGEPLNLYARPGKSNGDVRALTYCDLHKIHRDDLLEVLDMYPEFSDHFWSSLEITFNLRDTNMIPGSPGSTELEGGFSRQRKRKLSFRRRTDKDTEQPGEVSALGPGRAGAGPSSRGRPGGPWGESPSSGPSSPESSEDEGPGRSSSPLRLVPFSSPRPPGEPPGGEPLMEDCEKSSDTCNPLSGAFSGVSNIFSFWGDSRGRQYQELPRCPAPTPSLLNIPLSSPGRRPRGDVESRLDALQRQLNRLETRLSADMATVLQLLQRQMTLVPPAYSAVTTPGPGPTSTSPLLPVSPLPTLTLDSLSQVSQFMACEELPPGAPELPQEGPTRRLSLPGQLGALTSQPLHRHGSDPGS

SMILES | hERG current change (%, negative = inhibition) at 1uM
COc1ccc2[nH]c(C)c(C(=O)CN(C)CC3OCCO3)c2c1 | 12.3%
CCN1CCN(C(=O)c2ccc(N3CC4CC(C3)c3cccc(=O)n3C4)c([N+](=O)[O-])c2)CC1 (stereo not drawn) | 14.4%
CCCCCC(=O)NN1C(=S)N(c2ccc(OC)cc2)C(=O)C1CC(=O)Nc1ccccc1 (stereo not drawn) | 4.87%
CCOC(=O)C1CCCN(c2c(N3CCC(N4CCCCC4)CC3)c(=O)c2=O)C1 (stereo not drawn) | 8.42%
COc1ccc(NC(=O)Nc2ccc(F)cc2)cn1 | 16%
O=C(O)CC1c2ccccc2CCN1S(=O)(=O)c1ccc(F)cc1 (stereo not drawn) | 9.38%
CCn1c(SCC(=O)Nc2nc(-c3ccc(C)cc3)cs2)nnc1-c1ccccc1 | 2.49%
O=C(C1CC1)N1CCc2cc(S(=O)(=O)N(CCO)Cc3ccccc3)ccc21 | 1.01%
Cc1nn(Cc2ccc([N+](=O)[O-])cc2)c(=O)n1-c1ccc(F)cc1 | 9.97%
O=C(NCc1nc2ccccc2[nH]1)C1=C[C@H](C2CCCCC2)C[C@H](OCc2ccc(CO)cc2)O1 | 6.73%
CC(=O)C1=C(c2ccccc2)NC(=S)NC1c1ccc(O)c(O)c1 (stereo not drawn) | 13.2%
O=C(Nc1ccc(SC(F)F)cc1)C1=COCCO1 | 1.85%
CCOCC(=O)Nc1cccc(NC(C)=O)c1 | 6.22%
CCN(CC(=O)Nc1c(F)cccc1F)C(=O)c1cc([N+](=O)[O-])ccc1N1CCOCC1 | 7.64%
O=C(CN(CCc1ccccc1)S(=O)(=O)c1ccc(Br)cc1)N/N=C/c1ccccc1C(=O)O | 10.4%
O=c1[nH]c(C2CCN(S(=O)(=O)c3ccccc3F)CC2)nc2c1nnn2Cc1ccc2c(c1)OCCO2 | 8.2%
CCn1c(OC)nc2c1c(=O)n(C)c(=O)n2C | 11%
Cc1ccc(-c2csc(/C=C3\SC(C)C(=O)N3CC(=O)Nc3ccccc3F)n2)cc1 (stereo not drawn) | 6.48%
COc1ccc(C(=O)NC(=S)NNC(=O)c2ccc(C)cc2)cc1 | 14.7%
CC(NC(=O)Cc1ccccc1)c1nc2ccccc2[nH]1 (stereo not drawn) | 9.94%
CCOC(=O)C1(Cc2ccc(OC)cc2)CCN(C(=O)c2csc(C)n2)CC1 | 12.8%
O=C(Nc1ccc2[nH]ncc2c1)c1cccc(F)c1 | 12.9%
Cc1ccc(Nc2nc(COC(=O)COc3ccc(C=O)cc3)cs2)cc1 | 7.46%

SMILES | hERG current change (%, negative = inhibition) at 1uM
O=C(NCCS(=O)(=O)NCc1ccccc1)c1ccc2c(c1)OCO2 | 12.4%
CC(=O)Oc1ccc(NC(=O)CCC2CCCCC2)c(C(=O)O)c1 | 9.09%
Cn1nnc(NC(=S)NC(=O)/C=C/c2ccco2)n1 | 18.4%
COc1ccc2c(c1)C(=O)CC(O)(C(F)F)O2 (stereo not drawn) | 3.11%
COc1cc(N)n(S(=O)(=O)c2ccc(C)cc2)n1 | 14.3%
CC(C)c1nc(CN(C)C(=O)N[C@H](C(=O)N[C@@H](Cc2ccccc2)C[C@H](O)[C@H](Cc2ccccc2)NC(=O)OCc2cncs2)C(C)C)cs1 | 10.6%
CCN(CC)C(=O)c1cnn(-c2ccccc2)c1NC(=O)c1cccs1 | 9.61%
COc1cccc(CN2CCN(Cc3cccc(F)c3)CC2)c1.O=C(O)C(=O)O | 10.2%
CCCCc1ccc(NC(=S)N2CCN(c3ccccn3)CC2)cc1 | 6.18%
O=C1CSc2ccccc2N1Cc1ccc(F)cc1 | 8.14%
OC(c1cccnc1)c1cccs1 (stereo not drawn) | 15.6%
Cc1cccc(NC(=S)N2CCCCCC2)c1C | 15.2%
CC(=O)NCCc1nc2ccccc2n1Cc1ccc(Cl)cc1 | 9.78%
O=C(NCCc1ccc(Cl)cc1)c1ccc2nccnc2c1 | -6.73%
CCN1CCc2nc(SCC(=O)Nc3ccc(OC)cc3)c(C#N)cc2C1 | -18%
Cc1cccc(C2c3[nH]c4ccccc4c3CCN2C(=O)c2cc(CC(C)C)nc(C)n2)n1 (stereo not drawn) | 14%
O=C(O)C1C(=O)NCC1c1ccccc1 (stereo not drawn) | 9.14%
COC(=O)c1sc(NC(=O)c2ccco2)nc1C | 18%
CCN(CC)c1ccc(-n2c(C)cc(C=O)c2C)cc1 | 13.3%
Cc1nc2ccccc2n1CC(O)COc1ccc(Br)cc1 (stereo not drawn) | -5.81%
FC(F)(F)c1nnc2sc(-c3ccncc3)nn12 | 11.4%
CCO.CCOC(=O)c1c(-c2ccccc2)oc2ccc(OC(C)C(=O)O)cc12 (stereo not drawn) | 6.31%
COc1ccc(-n2c(=S)[nH]c3cc(C(=O)Nc4cccc(C)c4)ccc3c2=O)cc1 | 2.35%

SMILES | hERG current change (%, negative = inhibition) at 1uM
O=C(NN1CCOCC1)c1cc(S(=O)(=O)Nc2cccc(C(F)(F)F)c2)ccc1Cl | 6.25%
O=C(Nc1nccs1)c1ccc(Cl)c([N+](=O)[O-])c1 | 11.2%
CCN(c1ccccc1)S(=O)(=O)c1ccc(C(=O)Nc2nccs2)cc1 | 4.94%
Cc1cc(OCC(=O)Nc2ccccc2C)no1 | 15.1%
CC(C)NC(=O)CSc1nc(N)c(-c2ccccc2)c(=O)[nH]1 | 8.6%
CCc1c(C(=O)Nc2ccc(S(=O)(=O)N3CCOCC3)cc2)csc1C | -7.22%
CC(C)(C)c1ccc(C(=O)Nc2c3c(nn2C(C)(C)C)CS(=O)(=O)C3)cc1 | 5.49%
C=CCNC(=S)NNC(=O)c1cccn(Cc2ccc(Cl)c(Cl)c2)c1=O | 5.23%
CC1CCN(c2ncnc3c2cnn3-c2ccccc2)CC1 | 15.2%
O=C(O)c1ccccc1NS(=O)(=O)c1ccc2c(c1)OCCO2 | 13.8%
CC(=O)Nc1ccc(NC(=O)c2c([N+](=O)[O-])cnn2C)cc1 | 15.7%
O=C(Cn1ncc(N2CCOCC2)c(Br)c1=O)c1ccc(Cl)cc1 | 1.92%
O=C1C=C(N2CCN(C3=CC(=O)CCC3)CC2)CCC1 | 11.7%
Cn1c(-c2cccc(F)c2)nc2c1c(=O)[nH]c(=O)n2Cc1ccccc1 | 17.2%
Cc1ccc(S(=O)(=O)N2CCOCC2)cc1NC(=O)CSc1nnc(N)s1 | 21%
CCCNC(=S)N1CCC(NC(=O)C2CCCCC2)CC1 | 18.5%
CN(C)c1ccc(C(CNC(=O)c2ccc(-c3ccccc3)cc2)N2CCOCC2)cc1 (stereo not drawn) | 8.46%
Cc1cccc2[nH]c3c(N4CCN(C(=O)c5ccco5)CC4)ncnc3c12 | -5.77%
Cc1cnc(CN(C)C(=O)c2cc(COc3c(F)cccc3F)on2)[nH]1 | -7.52%
CNC(=S)N1N=C(c2ccc(Br)cc2)CC1c1ccc(N(C)C)cc1 (stereo not drawn) | 11.1%
COc1ccc(OC)c(CNC(=O)CCS(=O)(=O)c2ccc3c(c2)oc(=O)n3C)c1 | 11.6%
COc1ccc(OC)c(/C=N/NC(=O)CC2C(=O)NN=C2C)c1 (stereo not drawn) | 9.14%
O=C(NCc1ccncc1)c1cccc(S(=O)(=O)NCc2ccccc2)c1 | 1.41%

SMILES | hERG current change (%, negative = inhibition) at 1uM
Cc1ccc(NC(=O)CN2CCc3ccccc3C2)cc1C | 14%
CCNc1nc(NC(C)CC)nc(ON=C(C)C)n1 (stereo not drawn) | 9.5%
O=c1c(Cc2ccc(Cl)cc2)c(O)ccn1Cc1ccncc1 | 9.77%
COc1ccc(OC(=O)c2cc(S(=O)(=O)N3CCCC3)ccc2Cl)cc1 | 6.02%
CCN=C1SC(CC(=O)Nc2sc3c(c2C#N)CCCC3)C(=O)N1CC (stereo not drawn) | -7.54%
COc1cc(C(=O)OCc2ccccc2C#N)ccc1OCC(=O)N1CCOCC1 | -2.55%
O=C(NCCC1=CCCCC1)C1CCCN(S(=O)(=O)c2ccc(F)cc2)C1 (stereo not drawn) | 16.8%
O=C(NC1CC1)c1cc2cc(Br)ccc2s1 | 14.7%
Cc1c(OC(C(=O)O)c2ccccc2)ccc2c1oc(=O)c1ccccc12 (stereo not drawn) | 16.6%
COc1ccc(C(C(=O)NC2CCCC2)N2CCc3ccccc32)cc1 (stereo not drawn) | 14.5%
CCOc1ccc(C(=O)SC2=NCCS2)cc1 | 12.4%
O=C(CCNc1n[nH]c(=O)[nH]c1=O)N1CCCCC1 | 1.63%
CCOc1ccc(S(=O)(=O)N2CCOCC2)c2ccccc12 | 14.9%
Cc1cccc(N2CCN(CCCNC(=O)C3CCCN(c4ncnc5c4nc4n5CCCCC4)C3)CC2C)c1 (stereo not drawn) | -17%
O=C(N/N=C/c1ccc2cccnc2c1)c1nc2ccccc2c(=O)[nH]1 | 6.13%
O=C1CCN(S(=O)(=O)c2ccccc2)N1 | 11.8%
O=C(O)CCCC(=O)Nc1ccc(C(=O)N2CCCCC2)cc1 | 13%
Cc1cc(C(F)(F)F)c(C#N)c(N2CCOCC2)n1 | 0.286%
COc1ccc(N2Cc3ccccc3C2=NC(=O)c2ccc(C)cc2)cc1OC | 13.6%
CC1CN(S(=O)(=O)c2cccc(C(=O)NCC3COc4ccccc4O3)c2)CC(C)O1 (stereo not drawn) | 0.895%
CCOC(=O)CSc1nc(-c2ccccc2)nc2ccccc12 | 9.83%
